In this assay the target is T1, [35S]-labeled HA-Synoviolin-HAHA fusion protein (human, UniProt Q86TM6, [35S]-labeled by in vitro translation).
T1 construct: Made by in vitro translation (TNT-coupled Translation System) from pcDNA3-HA-synoviolin-HAHA and used as probe; also called [35S]HA-Synoviolin-HAHA; not shown: influenza hemagglutinin (HA)-tag, one copy at the N-terminus; two molecules of influenza hemagglutinin (HA)-tag at the C-terminus
The experiment in a line: far-western: GST on nylon membrane, probed with [35S]HA-Synoviolin-HAHA.

The record followed here is patent US20040152871A1 (ST MARIANNA UNIVERSITY SCHOOL OF MEDICINE, published 2004).

T1 sequence (Q86TM6 whole entry E545G, the tested form may be a part): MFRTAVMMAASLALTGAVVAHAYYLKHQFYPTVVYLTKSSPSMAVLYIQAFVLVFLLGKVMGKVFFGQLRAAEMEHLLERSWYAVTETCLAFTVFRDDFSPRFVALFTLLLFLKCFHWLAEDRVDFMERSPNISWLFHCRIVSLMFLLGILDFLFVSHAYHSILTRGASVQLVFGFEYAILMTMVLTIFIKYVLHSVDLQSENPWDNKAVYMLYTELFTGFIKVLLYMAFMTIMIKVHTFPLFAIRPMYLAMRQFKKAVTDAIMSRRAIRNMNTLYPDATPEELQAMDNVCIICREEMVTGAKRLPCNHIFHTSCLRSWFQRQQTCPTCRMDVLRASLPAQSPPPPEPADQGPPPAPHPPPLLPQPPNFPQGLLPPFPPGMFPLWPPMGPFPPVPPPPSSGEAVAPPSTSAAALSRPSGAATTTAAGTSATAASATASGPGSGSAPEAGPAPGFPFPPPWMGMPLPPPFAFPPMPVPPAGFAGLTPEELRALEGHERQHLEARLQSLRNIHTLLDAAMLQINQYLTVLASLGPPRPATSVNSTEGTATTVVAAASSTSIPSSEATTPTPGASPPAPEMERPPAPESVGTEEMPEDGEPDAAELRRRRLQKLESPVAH

B1: GST (other)
chain: not shown
notes: also called glutathione S-transferase
With B1, the binding result is “no binding (tested: GST (1 µg))”.
